Among all 3,200 compounds or so, about 75 (2%) showed an effect of 50% or more. The list shows a part of the results.
The compounds below were run on T1, S. aureus MSSA476. Conditions: relative growth, OD600, TSB; 25 µM; inhibitor.
T1 construct: MSSA476
Design: species or system S. aureus MSSA476 (TSB) or V. cholerae SAD30 (LB); 384-well bacterial growth screen at 25 uM, OD600 relative to DMSO control
For CC(C)N(C)S(=O)(=O)c1ccc(NC(=O)CCl)cc1 [4-K13, 2-chloro-N-{4-[methyl(propan-2-yl)sulfamoyl]phenyl}acetamide], the “% of control remaining” value was 115.865%. With COc1ccc(-n2c(C)cc(C=C(C#N)C(=O)N(C)OC)c2C)cc1 [9-N16, 2-cyano-N-methoxy-3-[1-(4-methoxyphenyl)-2,5-dimethyl-1H-pyrrol-3-yl]-N-methylprop-2-enamide] the “% of control remaining” value was 76.1049%. In the case of COc1ccc(N(C(=O)CCl)C2C=CS(=O)(=O)C2)cc1 (stereo not drawn) [5-H14, 2-chloro-N-(1,1-dioxo-2,3-dihydro-1lambda6-thiophen-3-yl)-N-(4-methoxyphenyl)acetamide], the “% of control remaining” value was 89.6175%. Cc1ccccc1NC(=O)C(C#N)=Cc1cccnc1 [8-D10, 2-cyano-N-(2-methylphenyl)-3-(pyridin-3-yl)prop-2-enamide] was tested, and the “% of control remaining” value was 102.573%. With O=C1C=CC(=O)N1c1ccc(SC(F)F)cc1 [10-A18, 1-{4-[(difluoromethyl)sulfanyl]phenyl}-2,5-dihydro-1H-pyrrole-2,5-dione] the “% of control remaining” value was 29.6875%. For CC(Cl)C(=O)NC(C)c1nc(-c2cccnc2)cs1 (stereo not drawn) [6-P07, 2-chloro-N-{1-[4-(pyridin-3-yl)-1,3-thiazol-2-yl]ethyl}propanamide], the “% of control remaining” value was 82.9756%. For CCc1nc2cc(CNC(=O)C(C)Cl)ccc2n1C1CC1 (stereo not drawn) [6-N09, 2-chloro-N-[(1-cyclopropyl-2-ethyl-1H-1,3-benzodiazol-5-yl)methyl]propanamide], the “% of control remaining” value was 99.7073%. For O=C(CCl)N1N=C(c2cccs2)CC1c1ccccc1O (stereo not drawn) [4-K20, 2-chloro-1-[5-(2-hydroxyphenyl)-3-(thiophen-2-yl)-4,5-dihydro-1H-pyrazol-1-yl]ethan-1-one], the “% of control remaining” value was 3.049%. With N#CC(=Cc1cc(Cl)ccc1O)C(=O)Nc1cccc2ccccc12 [9-P17, 3-(5-chloro-2-hydroxyphenyl)-2-cyano-N-(naphthalen-1-yl)prop-2-enamide] the “% of control remaining” value was 74.0075%. With Cc1cc(C=C(C#N)C(=O)Nc2ccccc2)c(C)n1CC(C)C [9-A07, 2-cyano-3-[2,5-dimethyl-1-(2-methylpropyl)-1H-pyrrol-3-yl]-N-phenylprop-2-enamide] the “% of control remaining” value was 85.3933%. N#CC(=Cc1ccc2c(c1)OCCO2)C(=O)Nc1ccc(F)cc1 [9-K20, 2-cyano-3-(2,3-dihydro-1,4-benzodioxin-6-yl)-N-(4-fluorophenyl)prop-2-enamide] was tested, and the “% of control remaining” value was 85.0936%. C=CC(=O)NCC1(OC)CCC(C)CC1 (stereo not drawn) [1-P08, N-[(1-methoxy-4-methylcyclohexyl)methyl]prop-2-enamide] was tested, and the “% of control remaining” value was 89.3187%. In the case of C=CC(=O)N1CCC(S(=O)(=O)NC(C)C)C1 (stereo not drawn) [1-D19, 1-(prop-2-enoyl)-N-(propan-2-yl)pyrrolidine-3-sulfonamide], the “% of control remaining” value was 109.714%. In the case of N#CC(=Cc1ccccc1)C(=O)NC1CCCCCCC1 [8-G17, 2-cyano-N-cyclooctyl-3-phenylprop-2-enamide], the “% of control remaining” value was 98.9212%. In the case of C=CC(=O)NCc1ccnn1C [1-H20, N-[(1-methyl-1H-pyrazol-5-yl)methyl]prop-2-enamide], the “% of control remaining” value was 132.22%. For O=C(CCl)NCCOc1ccc(F)cc1 [6-A08, 2-chloro-N-[2-(4-fluorophenoxy)ethyl]acetamide], the “% of control remaining” value was 80.5854%. CC(Cl)C(=O)Nc1sccc1C#N (stereo not drawn) [5-E21, 2-chloro-N-(3-cyanothiophen-2-yl)propanamide] was tested, and the “% of control remaining” value was 103.097%. With O=C(O)c1coc(C(=O)CCl)c1 [10-B07, 5-(2-chloroacetyl)furan-3-carboxylic acid] the “% of control remaining” value was 79.6875%. CCc1cc(SC#N)cc(CC)c1NC(=O)CCl [4-J12, 2-chloro-N-[4-(cyanosulfanyl)-2,6-diethylphenyl]acetamide] was tested, and the “% of control remaining” value was 112.053%. In the case of C=CC(=O)N(C)CC(=O)Nc1ccc(N2CCOCC2=O)c(C)c1 [3-J07, N-methyl-N-({[3-methyl-4-(3-oxomorpholin-4-yl)phenyl]carbamoyl}methyl)prop-2-enamide], the “% of control remaining” value was 101.35%. For Cc1csc(C(C#N)C(=O)CCl)n1 (stereo not drawn) [10-D12, 4-chloro-2-(4-methyl-1,3-thiazol-2-yl)-3-oxobutanenitrile], the “% of control remaining” value was 92.5%. In the case of Cc1ccc(Cc2cnc(NC(=O)CCl)s2)cc1 [5-K03, 2-chloro-N-{5-[(4-methylphenyl)methyl]-1,3-thiazol-2-yl}acetamide], the “% of control remaining” value was 107.832%. CN(CC1CCCCC1)C(=O)C(C)(C)NC(=O)CCl [6-A19, 2-(2-chloroacetamido)-N-(cyclohexylmethyl)-N,2-dimethylpropanamide] was tested, and the “% of control remaining” value was 86.3902%. For CC1Cc2cc(C(=O)CCl)ccc2N1S(C)(=O)=O (stereo not drawn) [10-A04, 2-chloro-1-(1-methanesulfonyl-2-methyl-2,3-dihydro-1H-indol-5-yl)ethan-1-one], the “% of control remaining” value was 1.875%. For Cc1nn(-c2ccccc2)c(C)c1CN(C)C(=O)CCl [7-B03, 2-chloro-N-[(3,5-dimethyl-1-phenyl-1H-pyrazol-4-yl)methyl]-N-methylacetamide], the “% of control remaining” value was 93.5636%. For O=C(CCl)c1ccc(Oc2ccccc2)cc1 [10-G20, 2-chloro-1-(4-phenoxyphenyl)ethan-1-one], the “% of control remaining” value was -0.625%. CC(C)NC(=O)C(C#N)=Cc1c(Cl)cccc1Cl [9-E13, 2-cyano-3-(2,6-dichlorophenyl)-N-(propan-2-yl)prop-2-enamide] was tested, and the “% of control remaining” value was 139.326%. In the case of CN(C)C(CNC(=O)CCl)c1ccccc1.Cl (stereo not drawn) [4-B21, 2-chloro-N-[2-(dimethylamino)-2-phenylethyl]acetamide hydrochloride], the “% of control remaining” value was 102.525%. With N#CC(=Cc1ccc(F)cc1)C(=O)Nc1ccc(C(=O)O)cc1 [8-L07, 4-[2-cyano-3-(4-fluorophenyl)prop-2-enamido]benzoic acid] the “% of control remaining” value was 95.9336%. In the case of COc1cc(C=C(C#N)C(=O)Nc2ccc(C)cc2)cc(Cl)c1O [8-P05, 3-(3-chloro-4-hydroxy-5-methoxyphenyl)-2-cyano-N-(4-methylphenyl)prop-2-enamide], the “% of control remaining” value was 89.2946%. In the case of CC(NC(=O)CCl)c1nc(Cc2ccccc2)no1 (stereo not drawn) [6-L07, N-[1-(3-benzyl-1,2,4-oxadiazol-5-yl)ethyl]-2-chloroacetamide], the “% of control remaining” value was 117.122%. C=CC(=O)N(C)CC(=O)N1CCn2cccc2C1C (stereo not drawn) [2-K10, N-methyl-N-(2-{1-methyl-1H,2H,3H,4H-pyrrolo[1,2-a]pyrazin-2-yl}-2-oxoethyl)prop-2-enamide] was tested, and the “% of control remaining” value was 96.7798%. With N#CC(=Cc1ccc(N2CCCCC2)cc1)C(=O)Nc1nccs1 [8-C04, 2-cyano-3-[4-(piperidin-1-yl)phenyl]-N-(1,3-thiazol-2-yl)prop-2-enamide] the “% of control remaining” value was 97.2614%. In the case of CC(Cl)C(=O)N1Cc2cccn2[C@@H](C)C1 (stereo partly drawn) [7-N22, 2-chloro-1-[(4S)-4-methyl-1H,2H,3H,4H-pyrrolo[1,2-a]pyrazin-2-yl]propan-1-one], the “% of control remaining” value was 74.7253%. With C=CC(=O)Nc1c2c(cc3c1CCC3)CCC2 [1-C11, N-(1,2,3,5,6,7-hexahydro-s-indacen-4-yl)prop-2-enamide] the “% of control remaining” value was 94.5934%. In the case of C=CC(=O)NCc1ccc(N2CCN(C)CC2)cc1 [3-I20, N-{[4-(4-methylpiperazin-1-yl)phenyl]methyl}prop-2-enamide], the “% of control remaining” value was 114.236%. In the case of C=CC(=O)NC(c1ccc(F)cc1)c1ccn(C)n1 (stereo not drawn) [3-J20, N-[(4-fluorophenyl)(1-methyl-1H-pyrazol-3-yl)methyl]prop-2-enamide], the “% of control remaining” value was 102.394%. For CCN(CC)c1ccc(NC(=O)CCl)cc1 [6-N10, 2-chloro-N-[4-(diethylamino)phenyl]acetamide], the “% of control remaining” value was 98%. With O=C(CCl)Nc1ccnn1Cc1cccs1 [5-O13, 2-chloro-N-{1-[(thiophen-2-yl)methyl]-1H-pyrazol-5-yl}acetamide] the “% of control remaining” value was 127.505%. In the case of CCCN(CC1CC1)C(=O)CCl [5-H11, 2-chloro-N-(cyclopropylmethyl)-N-propylacetamide], the “% of control remaining” value was 96.1749%. In the case of C=CC(=O)N1CCOC2(CCCC2)C1 [3-I11, 1-{6-oxa-9-azaspiro[4.5]decan-9-yl}prop-2-en-1-one], the “% of control remaining” value was 86.7218%. Cc1cc(C=C(C#N)C(=O)Nc2ccncc2)c(C)n1C1CC1 [8-K14, 2-cyano-3-(1-cyclopropyl-2,5-dimethyl-1H-pyrrol-3-yl)-N-(pyridin-4-yl)prop-2-enamide] was tested, and the “% of control remaining” value was 95.6017%. CC(Cl)C(=O)Nc1ccc2c(c1)C(=O)c1ccccc1C2=O (stereo not drawn) [4-G06, 2-chloro-N-(9,10-dioxo-9,10-dihydroanthracen-2-yl)propanamide] was tested, and the “% of control remaining” value was 105.193%. For CCN(CC)S(=O)(=O)c1ccc(Cl)c(NC(=O)CCl)c1 [5-J12, 2-chloro-N-[2-chloro-5-(diethylsulfamoyl)phenyl]acetamide], the “% of control remaining” value was 107.468%. For C=CC(=O)N1CCC(C(=O)NC2CCN(C(=O)C(C)(C)C)CC2)CC1 [3-I21, N-[1-(2,2-dimethylpropanoyl)piperidin-4-yl]-1-(prop-2-enoyl)piperidine-4-carboxamide], the “% of control remaining” value was 104.136%.
